Assay results taken from the supplement of paper PMC10369915.
The other results are listed elsewhere or left out. No stated cut-off is given here; in the data, active = 3.2 or more and inactive = the rest. Only a few entries rise above the background.

Assays:
Assay in all cases: enrichment score (SH2-bound / input frequency) (ratio); bacterial display of known human phosphotyrosine sites (pTyr-Var adds point mutants) read by sequencing; higher = stronger binding; tyrosines were phosphorylated by kinases first
Conditions in all cases: peptide library: pTyr-Var
SHP2 C-SH2 domain E139D = target: SHP2 C-SH2 domain E139D
[1] = target: SHP2 C-SH2 domain wild-type
SHP2 N-SH2 domain L43F = target: SHP2 N-SH2 domain L43F
SHP2 N-SH2 domain T42A = target: SHP2 N-SH2 domain T42A
SHP2 N-SH2 domain T52S = target: SHP2 N-SH2 domain T52S
[2] = target: SHP2 N-SH2 domain wild-type

Measured: enrichment score
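Further: displayed peptides selected on beads carrying the immobilized SH2 domain, with library peptides lacking any tyrosine serving as negative controls.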

SVVVPYERPEV [TP53_Y220_P222R]
inactive: SHP2 C-SH2 domain E139D 0.899 | [1] 0.8 | SHP2 N-SH2 domain L43F 0.86 | SHP2 N-SH2 domain T42A 0.682 | SHP2 N-SH2 domain T52S 0.87 | [2] 0.824

SVVVLYEPPEV [TP53_Y220_P219L]
inactive: SHP2 C-SH2 domain E139D 1.19 | [1] 1.01 | SHP2 N-SH2 domain L43F 1.28 | SHP2 N-SH2 domain T42A 1.01 | SHP2 N-SH2 domain T52S 1.09 | [2] 1.16

SVTCTDSPALN [TP53_Y126_Y126D]
inactive: SHP2 C-SH2 domain E139D 1.02 | [1] 0.964 | SHP2 N-SH2 domain L43F 0.913 | SHP2 N-SH2 domain T42A 0.724 | SHP2 N-SH2 domain T52S 0.744 | [2] 1.24

SVVVPYESPEV [TP53_Y220_P222S]
inactive: SHP2 C-SH2 domain E139D 0.842 | [1] 0.775 | SHP2 N-SH2 domain L43F 0.872 | SHP2 N-SH2 domain T42A 0.68 | SHP2 N-SH2 domain T52S 0.977 | [2] 0.953

SVTCTFSPALN [TP53_Y126_Y126F]
inactive: SHP2 C-SH2 domain E139D 1.1 | [1] 1.44 | SHP2 N-SH2 domain L43F 1.13 | SHP2 N-SH2 domain T42A 0.881 | SHP2 N-SH2 domain T52S 0.803 | [2] 1.69

SVTCTGSPALN [TP53_Y126_Y126G]
inactive: SHP2 C-SH2 domain E139D 0.766 | [1] 0.765 | SHP2 N-SH2 domain L43F 0.635 | SHP2 N-SH2 domain T42A 0.685 | SHP2 N-SH2 domain T52S 0.634 | [2] 1.02

SVVVPYEQPEV [TP53_Y220_P222Q]
inactive: SHP2 C-SH2 domain E139D 0.738 | [1] 0.862 | SHP2 N-SH2 domain L43F 0.884 | SHP2 N-SH2 domain T42A 0.723 | SHP2 N-SH2 domain T52S 0.693 | [2] 0.806

SVVVPYEPPGV [TP53_Y220_E224G]
inactive: SHP2 C-SH2 domain E139D 0.727 | [1] 0.832 | SHP2 N-SH2 domain L43F 0.715 | SHP2 N-SH2 domain T42A 0.711 | SHP2 N-SH2 domain T52S 0.772 | [2] 0.78

SVVVPYEPPEV [TP53_Y220]
inactive: SHP2 C-SH2 domain E139D 1.12 | [1] 0.822 | SHP2 N-SH2 domain L43F 0.875 | SHP2 N-SH2 domain T42A 0.874 | SHP2 N-SH2 domain T52S 1.06 | [2] 0.953

SVVVPYKPPEV [TP53_Y220_E221K]
inactive: SHP2 C-SH2 domain E139D 1.06 | [1] 0.837 | SHP2 N-SH2 domain L43F 0.871 | SHP2 N-SH2 domain T42A 0.769 | SHP2 N-SH2 domain T52S 0.835 | [2] 0.864

SVVVPYQPPEV [TP53_Y220_E221Q]
inactive: SHP2 C-SH2 domain E139D 1.47 | [1] 0.903 | SHP2 N-SH2 domain L43F 1.04 | SHP2 N-SH2 domain T42A 0.793 | SHP2 N-SH2 domain T52S 1.03 | [2] 1.1

SVVVHYEPPEV [TP53_Y220_P219H]
inactive: SHP2 C-SH2 domain E139D 0.911 | [1] 0.987 | SHP2 N-SH2 domain L43F 0.987 | SHP2 N-SH2 domain T42A 1 | SHP2 N-SH2 domain T52S 0.874 | [2] 0.757

SVVVPYDPPEV [TP53_Y220_E221D]
inactive: SHP2 C-SH2 domain E139D 0.863 | [1] 0.797 | SHP2 N-SH2 domain L43F 0.886 | SHP2 N-SH2 domain T42A 0.824 | SHP2 N-SH2 domain T52S 0.594 | [2] 0.901

GVVVPYEPPEV [TP53_Y220_S215G]
inactive: SHP2 C-SH2 domain E139D 0.847 | [1] 0.604 | SHP2 N-SH2 domain L43F 0.905 | SHP2 N-SH2 domain T42A 0.799 | SHP2 N-SH2 domain T52S 0.845 | [2] 0.877

SVVVPYEPSEV [TP53_Y220_P223S]
inactive: SHP2 C-SH2 domain E139D 0.772 | [1] 0.865 | SHP2 N-SH2 domain L43F 0.786 | SHP2 N-SH2 domain T42A 0.681 | SHP2 N-SH2 domain T52S 0.746 | [2] 0.808

SWVVPYEPPEV [TP53_Y220_V216W]
inactive: SHP2 C-SH2 domain E139D 1.23 | [1] 1.06 | SHP2 N-SH2 domain L43F 1.14 | SHP2 N-SH2 domain T42A 1.08 | SHP2 N-SH2 domain T52S 1.07 | [2] 1.1

SVVVPYEPLEV [TP53_Y220_P223L]
inactive: SHP2 C-SH2 domain E139D 0.816 | [1] 0.665 | SHP2 N-SH2 domain L43F 0.77 | SHP2 N-SH2 domain T42A 0.826 | SHP2 N-SH2 domain T52S 0.687 | [2] 0.999

IVVVPYEPPEV [TP53_Y220_S215I]
inactive: SHP2 C-SH2 domain E139D 1.21 | [1] 0.971 | SHP2 N-SH2 domain L43F 1.06 | SHP2 N-SH2 domain T42A 0.956 | SHP2 N-SH2 domain T52S 0.882 | [2] 1.03

SVVVPYEPHEV [TP53_Y220_P223H]
inactive: SHP2 C-SH2 domain E139D 0.77 | [1] 0.811 | SHP2 N-SH2 domain L43F 0.852 | SHP2 N-SH2 domain T42A 0.582 | SHP2 N-SH2 domain T52S 0.807 | [2] 0.907
